From publication PMC12136788
This is one part of the list.

T1: UNK ZnF1-6 (called full-length) (human, UniProt Q9C0B0 30-357)
T1 sequence: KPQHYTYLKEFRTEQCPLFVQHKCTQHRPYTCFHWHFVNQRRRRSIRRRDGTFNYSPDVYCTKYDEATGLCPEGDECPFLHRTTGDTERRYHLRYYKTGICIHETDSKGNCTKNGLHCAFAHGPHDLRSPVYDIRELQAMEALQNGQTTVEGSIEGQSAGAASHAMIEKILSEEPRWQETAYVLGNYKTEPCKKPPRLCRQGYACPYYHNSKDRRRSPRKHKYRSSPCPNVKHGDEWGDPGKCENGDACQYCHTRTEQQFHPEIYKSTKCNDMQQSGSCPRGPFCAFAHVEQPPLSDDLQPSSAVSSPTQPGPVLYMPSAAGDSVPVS

B1: chr7:99546688:99548407:-|CDS|ENSG00000221909|control|control|control (ssRNA)
RNA: GGGAGUUCUACAGUCCGACGAUCCUUGACACGGUUAAAAACAAAGAAGAGAAAUAGGCUCAAUAGUGCACCAGAUAUGCGGGUAGCAUUAUCUUCAUGUGUUCCUGACUGGAAGGAACUUAUGAACAGACAAGCACACCCAUCCAACAGAGGAUUGAGCAUCA
B2: chr10:95611293:95611394:-|CDS|ENSG00000059573|msi1|total|mutant (ssRNA)
RNA: GGGAGUUCUACAGUCCGACGAUCCCCCUCCGAAGUGAAGUCACUCCGAACUGAGUAUGGGGACCUGGAAUUAUGCAUUGAAGCCGUGGACAACGUUCAGGAUGCCAUUGACCACAUCCACAAGUAUGGCAGCUCCCACACGGACAACAGAGGAUUGAGCAUCA
B3: chr15:52122579:52122653:-|3pUTR|ENSG00000069966|msi1_unk|FALSE|overlapping (ssRNA)
RNA: GGGAGUUCUACAGUCCGACGAUCUCUUCACAUGUAAAUAGAUAUUACUUCUAGAGGAGCUUAGAGUUUAUUGCAGUGUAGCUUAGGGGAGCAACCCAUGGCUCACAGGUCACUAAGCGUCUCCAAUAUGACUAUUAAAACUGUCAACAGAGGAUUGAGCAUCA
B4: ENSG00000070961:be:win_1901|CDS|ENSG00000070961|bound_else_gene|NA|bound_elsewhere_windowed (ssRNA)
RNA: GGGAGUUCUACAGUCCGACGAUCAAACUGUGAUUGAACCGAUGGCAUCAGAAGGCUUGAGAACCAUAUGUCUUGCAUUCAGAGAUUUUCCAGCAGGAGAACCAGAACCAGAGUGGGAUAAUGAAAAUGAUAUUGUCACCGGCCCAACAGAGGAUUGAGCAUCA
B5: chr12:56162362:56162467:-|3pUTR|ENSG00000139613|unk|total|mutant (ssRNA)
RNA: GGGAGUUCUACAGUCCGACGAUCGGUUCCUCCCACCAGGCCCUUUGUUCCUCAUGUCCCCAUGUUUCUCUCCCUCUGCGUCUCCGCACCUUUCUUCUGUUCAAAGUUUUCUGUAAAUUUUCUCUUUUUUUCUUUCUUUCUUUUCAACAGAGGAUUGAGCAUCA
B6: chr1:217137657:217137758:-|5pUTR|ENSG00000196482|msi1|FALSE|unique (ssRNA)
RNA: GGGAGUUCUACAGUCCGACGAUCCGGGCUCCAGGCCGGGCUCCCUAAACGGGUCAGCAAUUGGAGCGGGAAGGCCGGACAGGUAGGUGGCGUGGGGCGCACAAGCCCGGCAGCGAUAACCGGGGACGUCUGUACUGCUUCCAACAACAGAGGAUUGAGCAUCA
B7: chr16:58599380:58599482:-|5pUTR|ENSG00000125107|unk|total|mutant (ssRNA)
RNA: GGGAGUUCUACAGUCCGACGAUCCAGAACAGAGUAAGACCCCUGGUAAAGAAGAACUGAAGAUAUUAUACAGAUACCAGAUACCGCCUAAUUACAAAGAAAGCAUUAACCUGCCUCUGAGGUGACUAAAGGGGAAUAAUGGUGCAACAGAGGAUUGAGCAUCA
B8: chr10:7163078:7163179:-|3pUTR|ENSG00000198879|unk|FALSE|unique (ssRNA)
RNA: GGGAGUUCUACAGUCCGACGAUCAGAGGUGCCUUUUAGGAAUACGGGGAGUGAAGGAAGGCCGGCAGGCAUCUCCAUGCAACUAGAUGGUUUGUUUGUUUGUUUGUUUGUUUGUUGUUCAUUUUGUUGUGUUUUUUGAGACAGCAACAGAGGAUUGAGCAUCA
B9: chr13:45969211:45969312:-|CDS|ENSG00000123200|unk|total|mutant (ssRNA)
RNA: GGGAGUUCUACAGUCCGACGAUCGUCCCUGACCGUACAGAGGUGACAGAAGCAGAGCAUACUGCCACCGCCACGACUCCUGGCCGUACCCCUUCUCCUCUAUCUUCUCUUCUUCCUCCUCCACCGCCUGUGGCUACUGCCACUCAACAGAGGAUUGAGCAUCA
B10: ENSG00000248905:stop:overlap|stop_codon|ENSG00000248905|stop_codon|NA|stop_codon (ssRNA)
RNA: GGGAGUUCUACAGUCCGACGAUCAAGACACAGAAGAAAAAGUGGGACUGAAGUACACUGAAGCAGGUAAUGUGAAAGGAAGCUAGGGACCCGGGAAUGAAUCUCUUCCUGCAAUGGCUUUUAGUUCUAGCUUAGUUGACUCUCCAACAGAGGAUUGAGCAUCA
B11: chr10:49131153:49131612:-|three_prime_utr|ENSG00000172538|control|control|control (ssRNA)
RNA: GGGAGUUCUACAGUCCGACGAUCCUGCCCUCACCUCCAGGGCCUGGGACUGCUCCUUCCCCAGCCAGCAGUAUCAGAGCCACUAGGGCAGGGAGAGAGGACCAGGGUCAGGGGGAAGGAAAGGCAUGGAGUGUAGAGCAAGGACAACAGAGGAUUGAGCAUCA
B12: chr8:76983344:76983445:-|CDS|ENSG00000164751|msi1|FALSE|unique (ssRNA)
RNA: GGGAGUUCUACAGUCCGACGAUCAGCCACCAGUGGCAAAGAAUGCGCUCUAUGUGGAGAGUGGCCCACCAUGCCUCACACCAUAGGAUGUGAGCAUAUUUUCUGUUAUUUCUGUGCUAAGAGUAGUUUCUUAUUUGACGUGUACAACAGAGGAUUGAGCAUCA
B13: chr2:27376893:27376994:+|3pUTR|ENSG00000115234|msi1|total|mutant (ssRNA)
RNA: GGGAGUUCUACAGUCCGACGAUCGGGCUGGCUGCACAGAGGAUUGCCCCUUCUCUUUUCAGAGCUGGCCCUCGAUGCCAAAUCCGCAUUCCGUAUUUUGCACAAAGUCUAAGGGACCAUGGCUGCCUGCCUUGGGGAGGAACCCAACAGAGGAUUGAGCAUCA
B14: chr4:87458373:87458474:+|3pUTR|ENSG00000170502|unk|FALSE|unique (ssRNA)
RNA: GGGAGUUCUACAGUCCGACGAUCUCCCUCCCGCUCCCCAUCUUCUGAGGCCUGAAGGAUGUUCCUGCCACAUCAAACUCCUUUAGGCAGAGUACCGCCACUGGAUGUAUAGUUUAAUGUUUCAUCUGAUUUUUCUUUAAAUUACAACAGAGGAUUGAGCAUCA
B15: chr10:91841327:91841437:+|CDS|ENSG00000107854|unk|FALSE|unique (ssRNA)
RNA: GGGAGUUCUACAGUCCGACGAUCUUCUUAUGGACAUUAUGAAGUUGCAGAACUUCUUGUUAAACAUGGAGCAGUAGUUAAUGUAGCUGAUUUAUGGAAAUUUACACCUUUACAUGAAGCAGCAGCAAAAGGAAAAUAUGAAAUCAACAGAGGAUUGAGCAUCA
B16: chr11:48137134:48137235:+|CDS|ENSG00000149177|msi1|total|mutant (ssRNA)
RNA: GGGAGUUCUACAGUCCGACGAUCCACGUACUCCUACUGCCUUCUUAUUGAGAAGGCUGGAAAUUCCAGCAACGCAACACAAGCCGUCACGGACAUUGGAAUUACUGACGCUACAGUCACUGAAUUAAUACCUGGCUCAUCAUACAACAGAGGAUUGAGCAUCA
B17: chr18:49591392:49591493:+|3pUTR|ENSG00000101670|msi1|total|mutant (ssRNA)
RNA: GGGAGUUCUACAGUCCGACGAUCCCUUCUCCGUUAUUAUGUGCCACCUCCCCUAUGAGUGACGUGUUUGAUCACCCGCAGAACCGCAAGCAGAGUAUCAUUCAUGCUGGGGCCAGAAUGAUGGCCGGUUGCCAGAUAUAACUGCAACAGAGGAUUGAGCAUCA
B18: chr7:6162096:6162197:-|3pUTR|ENSG00000008256|msi1|total|mutant (ssRNA)
RNA: GGGAGUUCUACAGUCCGACGAUCGUCACAGAACAUUUUGGGGCAGUUUAAUGUGGUACCAAACUGAAAACCGGAGCUAUUUACCGAUGGAGCAGCACUCCGUGCUUCACCGAAAGCAAUGCCUAUUUUUAAAGUUACAAACGCCAACAGAGGAUUGAGCAUCA
B19: chr17:37686430:37687371:-|three_prime_utr|ENSG00000275410|control|control|control (ssRNA)
RNA: GGGAGUUCUACAGUCCGACGAUCUGCAAUUUCCCCUCUGUGUCCUCUCCCCUCUGCCCUGUAUAUAAUACUAAAGUGUCUAUUAGUUUUCUUUGUAAAGGUCAGAGUCAAAAUUUCAAAAGUGAUCUGUCCCCUCUCCCCUCACAACAGAGGAUUGAGCAUCA
B20: ENSG00000119777:stop:overlap|stop_codon|ENSG00000119777|stop_codon|NA|stop_codon (ssRNA)
RNA: GGGAGUUCUACAGUCCGACGAUCGCCUACAGGACAUUACAGUGGCUUUCUUGGACUGGGCACUUGCCCUGAUAUCCCAGCAGUAGGCCCUGCCUUCCUGGCCACUGAUUUCUGCAUGGGUAGACCAUCCAAGACUGCAGCGGGCAACAGAGGAUUGAGCAUCA
B21: chr8:19954154:19954263:+|CDS|ENSG00000175445|unk|FALSE|unique (ssRNA)
RNA: GGGAGUUCUACAGUCCGACGAUCACCUAACUUUGAGUAUGCAGAAGCCCCGAGUCGUCUUUCUCCUGAUGAUGCAGAUUUUGUAGACGUCUUACACACAUUCACCAGAGGGUCCCCUGGUCGAAGCAUUGGAAUCCAGAAACCCAACAGAGGAUUGAGCAUCA
B22: chr2:111862450:111862553:-|CDS|ENSG00000153107|unk|FALSE|unique (ssRNA)
RNA: GGGAGUUCUACAGUCCGACGAUCUCUUUUUCAGGGGUGCAAAGGUUCAACAUUUCAAGCCAUAAUCAGUCUCCAAAGAGACAUAGUAUUUCUCAUUCUCCAAAUAGUAAUUCUAAUGGCUCCUUUCUUGCACCAGAAACGGAGCAACAGAGGAUUGAGCAUCA

target: T1, UNK ZnF1-6 (called full-length); assay: nsRBNS (natural sequence RNA bind-n-seq); RBNS binding buffer (assumed for nsRBNS): 25 mM Tris pH 7.5, 150 mM KCl, 3 mM MgCl2, 0.01% Triton X-100, 500 ug/ml BSA, 20 U/ml SUPERase-In, 4 C; UNK is unkempt and MSI1 is Musashi-1; names of the RNAs are library labels; protein concentration not given here; high values mean tight binding

| Binder | binding signal |
| --- | --- |
| B1 | 0.467 enrichment R |
| B2 | 0.482 enrichment R |
| B3 | 0.809 enrichment R |
| B4 | 0.571 enrichment R |
| B5 | 1.61 enrichment R |
| B6 | 0.987 enrichment R |
| B7 | 0.642 enrichment R |
| B8 | 1.27 enrichment R |
| B9 | 1.3 enrichment R |
| B10 | 0.324 enrichment R |
| B11 | 0.997 enrichment R |
| B12 | 0.515 enrichment R |
| B13 | 0.643 enrichment R |
| B14 | 1.65 enrichment R |
| B15 | 0.989 enrichment R |
| B16 | 0.54 enrichment R |
| B17 | 0.75 enrichment R |
| B18 | 0.676 enrichment R |
| B19 | 0.786 enrichment R |
| B20 | 0.579 enrichment R |
| B21 | 0.828 enrichment R |
| B22 | 1.49 enrichment R |
